From the supplement of paper PMC10369915
This is one part of the list. Cut-off read from the data, not from the text of the source: active = 3.2 or more and inactive = the rest. Most of these values are background signal.

Target: SHP2 C-SH2 domain E139D
Test: enrichment score (SH2-bound / input frequency) (ratio); bacterial display of known human phosphotyrosine sites (pTyr-Var adds point mutants) read by sequencing; higher = stronger binding; tyrosines were phosphorylated by kinases first
Conditions: peptide library: pTyr-Var
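Note: displayed peptides selected on beads carrying the immobilized SH2 domain, with library peptides lacking any tyrosine serving as negative controls.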

Enrichment score, inactive:
VQNIVYHTASI [CYP39A1_Y102_R103H] 1.12
KAPPTYDTVLQ [CYP3A4_Y347] 0.608
IDPYIYTPFGS [CYP3A4_Y432] 0.976
IDPYTYTPFGS [CYP3A4_Y432_I431T] 0.763
IDPFIYTPFGS [CYP3A4_Y432_YF] 1.62
KAWGIYDCQQP [CYP3A7_Y75_V71A] 1.06
VRVQLYDPDYM [CYP4A22_Y100] 1.23
VRVQLYDPDFM [CYP4A22_Y100_Y104F] 1.28
LYDPDYMKVIL [CYP4A22_Y104] 0.735
LYDPDFMKVIL [CYP4A22_Y104_Y104F] 1.22
LFDPDFMKVIL [CYP4A22_Y104_Y104F_YF] 1.62
LFDPDYMKVIL [CYP4A22_Y104_YF] 1.25
ESFCLYPPVPQ [CYP4B1_Y377_R375C] 0.896
LRLSSYSTTIR [CYP7B1_Y365] 1.22
LRLFSYSTTIR [CYP7B1_Y365_S363F] 0.62
QSPQLYKQLCI [DARS1_Y253_M256L] 0.586
KSVLVYRNGDP [DCDC2_Y22] 1.06
NSVLVYRNGDP [DCDC2_Y22_K17N] 0.736
SFHSSYSEIKD [DCLRE1C_Y322] 0.931

Target: SHP2 C-SH2 domain wild-type
Test: as above
Conditions: peptide library: pTyr-Var

Enrichment score, inactive:
VQNIVYHTASI [CYP39A1_Y102_R103H] 1.61
KAPPTYDTVLQ [CYP3A4_Y347] 0.683
IDPYIYTPFGS [CYP3A4_Y432] 0.788
IDPYTYTPFGS [CYP3A4_Y432_I431T] 0.813
IDPFIYTPFGS [CYP3A4_Y432_YF] 1.18
KAWGIYDCQQP [CYP3A7_Y75_V71A] 1.04
VRVQLYDPDYM [CYP4A22_Y100] 1.15
VRVQLYDPDFM [CYP4A22_Y100_Y104F] 1.01
LYDPDYMKVIL [CYP4A22_Y104] 0.754
LYDPDFMKVIL [CYP4A22_Y104_Y104F] 1.13
LFDPDFMKVIL [CYP4A22_Y104_Y104F_YF] 1.66
LFDPDYMKVIL [CYP4A22_Y104_YF] 1.42
ESFCLYPPVPQ [CYP4B1_Y377_R375C] 0.797
LRLSSYSTTIR [CYP7B1_Y365] 1.06
LRLFSYSTTIR [CYP7B1_Y365_S363F] 0.587
QSPQLYKQLCI [DARS1_Y253_M256L] 0.857
KSVLVYRNGDP [DCDC2_Y22] 0.926
NSVLVYRNGDP [DCDC2_Y22_K17N] 0.72
SFHSSYSEIKD [DCLRE1C_Y322] 1.59

Target: SHP2 N-SH2 domain L43F
Test: as above
Conditions: peptide library: pTyr-Var

Enrichment score, inactive:
VQNIVYHTASI [CYP39A1_Y102_R103H] 1.38
KAPPTYDTVLQ [CYP3A4_Y347] 0.731
IDPYIYTPFGS [CYP3A4_Y432] 0.893
IDPYTYTPFGS [CYP3A4_Y432_I431T] 0.734
IDPFIYTPFGS [CYP3A4_Y432_YF] 1.09
KAWGIYDCQQP [CYP3A7_Y75_V71A] 1.02
VRVQLYDPDYM [CYP4A22_Y100] 1.33
VRVQLYDPDFM [CYP4A22_Y100_Y104F] 1.3
LYDPDYMKVIL [CYP4A22_Y104] 0.49
LYDPDFMKVIL [CYP4A22_Y104_Y104F] 1.46
LFDPDFMKVIL [CYP4A22_Y104_Y104F_YF] 1.61
LFDPDYMKVIL [CYP4A22_Y104_YF] 1.09
ESFCLYPPVPQ [CYP4B1_Y377_R375C] 0.649
LRLSSYSTTIR [CYP7B1_Y365] 0.981
LRLFSYSTTIR [CYP7B1_Y365_S363F] 0.584
QSPQLYKQLCI [DARS1_Y253_M256L] 0.953
KSVLVYRNGDP [DCDC2_Y22] 1.16
NSVLVYRNGDP [DCDC2_Y22_K17N] 0.625
SFHSSYSEIKD [DCLRE1C_Y322] 0.872

Target: SHP2 N-SH2 domain T42A
Test: as above
Conditions: peptide library: pTyr-Var

Enrichment score, inactive:
VQNIVYHTASI [CYP39A1_Y102_R103H] 2.03
KAPPTYDTVLQ [CYP3A4_Y347] 0.574
IDPYIYTPFGS [CYP3A4_Y432] 1.02
IDPYTYTPFGS [CYP3A4_Y432_I431T] 1.79
IDPFIYTPFGS [CYP3A4_Y432_YF] 2.26
KAWGIYDCQQP [CYP3A7_Y75_V71A] 0.935
VRVQLYDPDYM [CYP4A22_Y100] 1.26
VRVQLYDPDFM [CYP4A22_Y100_Y104F] 1.06
LYDPDYMKVIL [CYP4A22_Y104] 0.533
LYDPDFMKVIL [CYP4A22_Y104_Y104F] 1.1
LFDPDFMKVIL [CYP4A22_Y104_Y104F_YF] 1.68
LFDPDYMKVIL [CYP4A22_Y104_YF] 1.2
ESFCLYPPVPQ [CYP4B1_Y377_R375C] 0.709
LRLSSYSTTIR [CYP7B1_Y365] 1.03
LRLFSYSTTIR [CYP7B1_Y365_S363F] 0.476
QSPQLYKQLCI [DARS1_Y253_M256L] 0.41
KSVLVYRNGDP [DCDC2_Y22] 1.02
NSVLVYRNGDP [DCDC2_Y22_K17N] 0.782
SFHSSYSEIKD [DCLRE1C_Y322] 0.805

Target: SHP2 N-SH2 domain T52S
Test: as above
Conditions: peptide library: pTyr-Var

Enrichment score, inactive:
VQNIVYHTASI [CYP39A1_Y102_R103H] 1.12
KAPPTYDTVLQ [CYP3A4_Y347] 0.702
IDPYIYTPFGS [CYP3A4_Y432] 0.721
IDPYTYTPFGS [CYP3A4_Y432_I431T] 0.724
IDPFIYTPFGS [CYP3A4_Y432_YF] 1.38
KAWGIYDCQQP [CYP3A7_Y75_V71A] 0.836
VRVQLYDPDYM [CYP4A22_Y100] 1.48
VRVQLYDPDFM [CYP4A22_Y100_Y104F] 1.14
LYDPDYMKVIL [CYP4A22_Y104] 0.497
LYDPDFMKVIL [CYP4A22_Y104_Y104F] 1.42
LFDPDFMKVIL [CYP4A22_Y104_Y104F_YF] 1.72
LFDPDYMKVIL [CYP4A22_Y104_YF] 1.24
ESFCLYPPVPQ [CYP4B1_Y377_R375C] 0.955
LRLSSYSTTIR [CYP7B1_Y365] 0.83
LRLFSYSTTIR [CYP7B1_Y365_S363F] 0.554
QSPQLYKQLCI [DARS1_Y253_M256L] 0.487
KSVLVYRNGDP [DCDC2_Y22] 0.866
NSVLVYRNGDP [DCDC2_Y22_K17N] 0.846
SFHSSYSEIKD [DCLRE1C_Y322] 0.753

Target: SHP2 N-SH2 domain wild-type
Test: as above
Conditions: peptide library: pTyr-Var

Enrichment score, inactive:
VQNIVYHTASI [CYP39A1_Y102_R103H] 0.847
KAPPTYDTVLQ [CYP3A4_Y347] 0.837
IDPYIYTPFGS [CYP3A4_Y432] 0.77
IDPYTYTPFGS [CYP3A4_Y432_I431T] 0.801
IDPFIYTPFGS [CYP3A4_Y432_YF] 1.03
KAWGIYDCQQP [CYP3A7_Y75_V71A] 1.13
VRVQLYDPDYM [CYP4A22_Y100] 1.35
VRVQLYDPDFM [CYP4A22_Y100_Y104F] 1.29
LYDPDYMKVIL [CYP4A22_Y104] 0.749
LYDPDFMKVIL [CYP4A22_Y104_Y104F] 1.28
LFDPDFMKVIL [CYP4A22_Y104_Y104F_YF] 1.45
LFDPDYMKVIL [CYP4A22_Y104_YF] 1.28
ESFCLYPPVPQ [CYP4B1_Y377_R375C] 0.923
LRLSSYSTTIR [CYP7B1_Y365] 0.926
LRLFSYSTTIR [CYP7B1_Y365_S363F] 0.69
QSPQLYKQLCI [DARS1_Y253_M256L] 0.932
KSVLVYRNGDP [DCDC2_Y22] 1.06
NSVLVYRNGDP [DCDC2_Y22_K17N] 0.624
SFHSSYSEIKD [DCLRE1C_Y322] 0.635
